This passage reports Kd results from patent US20220002380A1 (CONSEJO SUPERIOR DE INVESTIGACIONES CIENTIFICAS, published 2022).

For the test, the target named is T1, human lymphotoxin alpha (hLTα) (human, UniProt P01374 35-205).
T1 sequence: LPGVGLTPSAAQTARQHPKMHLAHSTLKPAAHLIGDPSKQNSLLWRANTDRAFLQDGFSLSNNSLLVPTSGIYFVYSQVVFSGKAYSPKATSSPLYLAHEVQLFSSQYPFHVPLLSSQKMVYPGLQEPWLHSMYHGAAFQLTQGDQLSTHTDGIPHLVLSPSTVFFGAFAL

B1: wild type (WT) Etanercept (TNFR2-Fc) (Fc fusion)
chain: LPAQVAFTPYAPEPGSTCRLREYYDQTAQMCCSKCSPGQHAKVFCTKTSDTVCDSCEDSTYTQLWNWVPECLSCGSRCSSDQVETQACTREQNRICTCRPGWYCALSKQEGCRLCAPLRKCRPGFGVARPGTETSDVVCKPCAPGTFSNTTSSTDICRPHQICNVVAIPGNASMDAVCTSTSPTRSMAPGAVHLPQPVSTRSQHTQPTPEPSTAPSTSFLLPMGPSPPAEGSTGD[gap - human IgG1 Fc]
Turning to B1, binding was put at a Kd of 3.95 nM.

By Kd is commonly meant the equilibrium constant for the complex coming apart. A high value points to lower affinity.
